In assay [1] the target is RAD51 (endogenous) (human (endogenous in HEK293T and HeLa)) (UniProt Q06609). The assay is described as follows: co-IP; RAD51 immunoprecipitates from cells expressing Flag-PCAF full length, HAT or ΔHAT; cells not named (Fig. 2G).
Assay [2] has the same target. Briefly: co-IP; anti-RAD51 immunoprecipitation from HEK293T cells transfected with Flag-tagged acetyltransferases; blot for Flag (Fig. 2A).
For assay [3], the target named is His-RAD51 expressed in HEK293T cells (UniProt Q06609). The assay is described as follows: co-IP; anti-His immunoprecipitation from HEK293T cells co-transfected with Flag-PCAF and His-RAD51 or empty vector; blot for Flag (Fig. EV2C).
The target in assay [4] is RAD51 (endogenous) (human (endogenous in HEK293T and HeLa)) (UniProt Q06609). Briefly: co-IP; anti-RAD51 immunoprecipitation from HeLa cells transfected with empty vector or Flag-PCAF, with or without ETO (20 uM, 2 h); blot for Flag (Fig. 2E).
Assay [5] has as its target His-RAD51, purified from E. coli (UniProt Q06609). Briefly: pull-down; purified His-RAD51 bound to RAD51 antibody on Protein A/G magnetic beads, incubated with purified His-PCAF; western blot (Fig. 2C); both purified. (In western blotting, separated proteins are transferred to a membrane and probed.)
In assay [6] the target is RAD51 (endogenous) (human (endogenous in HEK293T and HeLa)) (UniProt Q06609). Briefly: co-IP; anti-RAD51 immunoprecipitation from HEK293T cells; blot for endogenous PCAF or p300 (Figs. 2B, EV2A).
The target of assay [7] is T1, Flag-RAD51 R1 (residues 1-114, N-terminal domain) (UniProt Q06609).
T1 sequence: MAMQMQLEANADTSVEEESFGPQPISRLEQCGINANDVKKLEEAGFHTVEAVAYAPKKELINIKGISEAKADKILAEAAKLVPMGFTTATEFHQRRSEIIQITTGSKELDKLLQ
The assay is described as follows: co-IP; immunoprecipitation of Flag-RAD51 full length, R1 or R2; blot for endogenous PCAF; cells not named (Fig. 2F).

Amino acid sequences for entries named in this document (tags omitted).
UniProt Q92831: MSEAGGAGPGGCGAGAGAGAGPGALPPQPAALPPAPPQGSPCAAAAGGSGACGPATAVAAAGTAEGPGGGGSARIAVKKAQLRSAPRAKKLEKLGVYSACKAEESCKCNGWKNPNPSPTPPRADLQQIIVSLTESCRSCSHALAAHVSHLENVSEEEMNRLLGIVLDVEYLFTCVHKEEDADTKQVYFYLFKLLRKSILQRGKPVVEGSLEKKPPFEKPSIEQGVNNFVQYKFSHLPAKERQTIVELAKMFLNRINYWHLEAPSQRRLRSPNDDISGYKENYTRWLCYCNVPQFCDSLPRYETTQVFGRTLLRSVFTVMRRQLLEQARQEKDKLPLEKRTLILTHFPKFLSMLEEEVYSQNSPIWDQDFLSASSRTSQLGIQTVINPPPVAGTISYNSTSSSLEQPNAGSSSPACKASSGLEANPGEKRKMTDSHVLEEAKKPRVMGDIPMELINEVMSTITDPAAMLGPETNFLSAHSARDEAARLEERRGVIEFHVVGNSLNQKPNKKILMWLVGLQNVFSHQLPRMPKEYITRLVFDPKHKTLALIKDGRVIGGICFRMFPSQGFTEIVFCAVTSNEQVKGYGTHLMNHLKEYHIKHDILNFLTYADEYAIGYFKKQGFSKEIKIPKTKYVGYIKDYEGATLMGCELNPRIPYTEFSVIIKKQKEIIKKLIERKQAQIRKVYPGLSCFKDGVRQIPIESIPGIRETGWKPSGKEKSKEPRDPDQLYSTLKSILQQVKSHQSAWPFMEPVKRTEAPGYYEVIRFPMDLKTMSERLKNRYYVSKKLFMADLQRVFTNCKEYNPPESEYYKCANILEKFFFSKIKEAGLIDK
UniProt Q09472: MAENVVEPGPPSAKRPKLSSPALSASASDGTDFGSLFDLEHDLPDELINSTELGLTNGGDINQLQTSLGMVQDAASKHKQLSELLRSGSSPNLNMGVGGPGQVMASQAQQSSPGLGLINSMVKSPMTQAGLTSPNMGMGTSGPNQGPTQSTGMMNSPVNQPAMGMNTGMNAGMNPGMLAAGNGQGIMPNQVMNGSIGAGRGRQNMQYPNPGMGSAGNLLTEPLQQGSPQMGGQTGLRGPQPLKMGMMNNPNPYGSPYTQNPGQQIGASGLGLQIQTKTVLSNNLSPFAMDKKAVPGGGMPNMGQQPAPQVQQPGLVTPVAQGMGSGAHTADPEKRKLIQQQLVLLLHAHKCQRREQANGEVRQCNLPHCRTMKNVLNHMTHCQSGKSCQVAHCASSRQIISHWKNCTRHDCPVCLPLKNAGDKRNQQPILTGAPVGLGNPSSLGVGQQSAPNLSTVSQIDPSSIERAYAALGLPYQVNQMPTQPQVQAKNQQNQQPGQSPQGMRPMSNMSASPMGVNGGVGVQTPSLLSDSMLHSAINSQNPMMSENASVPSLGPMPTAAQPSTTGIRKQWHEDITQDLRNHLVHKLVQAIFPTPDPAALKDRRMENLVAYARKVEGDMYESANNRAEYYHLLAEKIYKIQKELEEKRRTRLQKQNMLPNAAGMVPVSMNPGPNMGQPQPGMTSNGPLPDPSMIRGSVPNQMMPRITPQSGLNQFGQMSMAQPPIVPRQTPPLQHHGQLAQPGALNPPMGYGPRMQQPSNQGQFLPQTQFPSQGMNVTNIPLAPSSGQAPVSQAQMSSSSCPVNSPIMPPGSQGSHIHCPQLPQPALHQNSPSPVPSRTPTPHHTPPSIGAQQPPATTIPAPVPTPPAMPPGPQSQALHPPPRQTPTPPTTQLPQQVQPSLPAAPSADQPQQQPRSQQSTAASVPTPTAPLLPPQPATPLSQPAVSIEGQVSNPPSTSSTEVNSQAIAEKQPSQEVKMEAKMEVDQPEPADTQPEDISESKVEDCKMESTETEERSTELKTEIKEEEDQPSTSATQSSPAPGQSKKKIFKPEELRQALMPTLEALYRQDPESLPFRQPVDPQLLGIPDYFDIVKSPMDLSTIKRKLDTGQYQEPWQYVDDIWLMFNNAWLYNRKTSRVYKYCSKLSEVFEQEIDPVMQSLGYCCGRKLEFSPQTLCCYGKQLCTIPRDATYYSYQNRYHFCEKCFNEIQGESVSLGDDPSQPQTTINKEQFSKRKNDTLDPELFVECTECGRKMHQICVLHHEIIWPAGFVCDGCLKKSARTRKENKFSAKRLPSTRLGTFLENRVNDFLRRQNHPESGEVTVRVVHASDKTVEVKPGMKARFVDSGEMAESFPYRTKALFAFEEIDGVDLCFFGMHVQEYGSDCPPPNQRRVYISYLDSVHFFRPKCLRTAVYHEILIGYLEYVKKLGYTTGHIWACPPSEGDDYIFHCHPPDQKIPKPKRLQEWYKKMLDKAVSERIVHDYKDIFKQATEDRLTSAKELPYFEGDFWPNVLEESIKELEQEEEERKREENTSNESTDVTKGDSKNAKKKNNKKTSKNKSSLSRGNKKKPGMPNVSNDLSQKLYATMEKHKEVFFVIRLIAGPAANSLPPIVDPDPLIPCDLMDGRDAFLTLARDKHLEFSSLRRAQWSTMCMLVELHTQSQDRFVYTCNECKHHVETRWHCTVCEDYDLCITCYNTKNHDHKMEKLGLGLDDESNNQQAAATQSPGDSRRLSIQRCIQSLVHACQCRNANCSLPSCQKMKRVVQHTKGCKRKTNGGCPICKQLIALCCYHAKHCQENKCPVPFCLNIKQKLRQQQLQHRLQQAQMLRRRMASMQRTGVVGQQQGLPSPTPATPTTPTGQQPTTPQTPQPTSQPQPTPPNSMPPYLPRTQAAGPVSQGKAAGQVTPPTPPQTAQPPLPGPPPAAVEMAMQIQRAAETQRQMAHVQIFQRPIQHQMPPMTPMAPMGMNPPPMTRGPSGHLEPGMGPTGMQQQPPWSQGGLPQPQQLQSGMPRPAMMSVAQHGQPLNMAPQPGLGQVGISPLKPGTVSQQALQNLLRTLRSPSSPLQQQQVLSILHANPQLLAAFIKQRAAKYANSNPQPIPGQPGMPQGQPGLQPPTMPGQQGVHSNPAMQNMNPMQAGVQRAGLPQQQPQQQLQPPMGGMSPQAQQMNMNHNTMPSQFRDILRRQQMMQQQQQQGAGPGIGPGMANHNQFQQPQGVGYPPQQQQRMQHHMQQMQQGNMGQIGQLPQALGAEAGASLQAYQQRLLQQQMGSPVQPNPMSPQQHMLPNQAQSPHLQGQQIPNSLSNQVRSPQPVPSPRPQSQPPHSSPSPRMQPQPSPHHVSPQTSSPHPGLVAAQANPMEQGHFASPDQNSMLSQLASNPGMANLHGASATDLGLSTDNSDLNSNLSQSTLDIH

Assay [8] deals with Flag-RAD51 R2 (residues 82-339, ATPase domain) (UniProt Q06609). The assay is described as above.
Assay [9] addresses Flag-RAD51, full length (UniProt Q06609). Described as above.
For assay [10] the target is unchanged. The assay is described as follows: co-IP; anti-Flag immunoprecipitation from HEK293T cells transfected with empty vector or Flag-RAD51, with or without DNase I; blot for PCAF (Fig. EV2D).
Assay [11] concerns the target Flag-PCAF (p300-associated factor), full length (UniProt Q92831). Briefly: co-IP; anti-Flag M2 beads, HEK293T cells transfected with empty vector or Flag-PCAF; blot for endogenous RAD51 (Fig. EV2B).

This is an account of results in PMC12373954.

Results are given in words; binding and its absence hold for the method and conditions named. For part of these data: In cells and extracts the contact can be indirect. Some results given as binding are weak or reduced against the parent protein; the word gives no strength. For part of these data: Where a sequence is shown, tags or fusion partners need not be part of it.

On to “Flag-PCAF (p300-associated factor), full length (from UniProt Q92831 1-832) (enzyme)”, for which the binding result in assay [1], in [2], in assay [3] and in [4] was “binds” throughout.

With “His-PCAF, purified from E. coli (from UniProt Q92831 1-832) (enzyme)”, in assay [5], the binding result was “binds”.

For “PCAF (endogenous) (from UniProt Q92831 1-832) (enzyme)”, the binding result is “binds” in assay [6]; “no binding” in assay [7]; “binds” in assay [8]; “binds” with Flag-RAD51, full length [9]; “binds” in the assay with Flag-RAD51, full length [10].

As to “RAD51 (endogenous) (from UniProt Q06609 1-339)”, the binding result in assay [11] is on record as “binds”.

Take “p300 (endogenous) (from UniProt Q09472 1-2414) (enzyme)”: the binding entry in assay [6] is reported as “no binding”.
